{"source": "the supplement of paper PMC10126150", "note": "Sequences with one replicate were seen in a single cluster, so their values are uncertain.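 Also: ATP exposure 15 min at 22 °C before imaging.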"}
{"test_system": "ATP", "test": "switch fluorescence ratio, 500 uM ATP over buffer (Cy3 cluster intensity, sum of 5 cycles each) (fold (ratio)); higher = stronger signal-on switching upon ATP binding; sequences stand for … in TCGTCGGCAGCGTCAGATGTGTATAAGAGACAGTTTTTTTTTTTTTTTTTTTTTTTTT…TC", "details": "aptamer strand: ATP DNA aptamer (quencher-CACCTGGGGGAGTATTGCGGAGGAAGG + anchor), 100 nM annealed; ATP concentration: 500 uM; one replicate", "how_it_was_run": "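Clusters carrying Cy3-labelled switching strands on a modified Illumina MiSeq flow-cell were annealed to 100 nM quencher-labelled ATP aptamer and imaged in selection buffer. They were imaged again after 15 min with 500 uM ATP at 22 °C, over five buffer/ATP cycles with NaOH stripping and re-annealing in between. For each cluster, the fluorescence ratio is the summed Cy3 intensity of the target cycles divided by that of the buffer cycles, averaged per switch-domain sequence. Clusters outside 100-1000 RFU were left out.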"}
{"sequence": "GTGGTATTAG", "switch fluorescence ratio": 0.957}
{"sequence": "GTGGTGACAC", "switch fluorescence ratio": 0.957}
{"sequence": "GTGGTGCC", "switch fluorescence ratio": 0.99}
{"sequence": "GTGGTGTGCA", "switch fluorescence ratio": 0.946}
{"sequence": "GTGGTTATAT", "switch fluorescence ratio": 1.03}
{"sequence": "GTGGTTGCT", "switch fluorescence ratio": 1.01}
{"sequence": "GTGTAACGCT", "switch fluorescence ratio": 0.982}
{"sequence": "GTGTAAGTTT", "switch fluorescence ratio": 1.02}
{"sequence": "GTGTACTGTT", "switch fluorescence ratio": 0.936}
{"sequence": "GTGTAGAGTG", "switch fluorescence ratio": 0.957}
{"sequence": "GTGTAGTGGT", "switch fluorescence ratio": 1}
{"sequence": "GTGTATACA", "switch fluorescence ratio": 0.966}
{"sequence": "GTGTCAGCCT", "switch fluorescence ratio": 1.01}
{"sequence": "GTGTCATTTG", "switch fluorescence ratio": 0.989}
{"sequence": "GTGTCGGTGG", "switch fluorescence ratio": 1}
{"sequence": "GTGTCTCTAG", "switch fluorescence ratio": 0.941}
{"sequence": "GTGTCTGAAG", "switch fluorescence ratio": 1.02}
{"sequence": "GTGTCTTGCC", "switch fluorescence ratio": 0.973}
{"sequence": "GTGTGACACC", "switch fluorescence ratio": 0.954}
{"sequence": "GTGTGCCGA", "switch fluorescence ratio": 1.05}
{"sequence": "GTGTGGAAAC", "switch fluorescence ratio": 0.992}
{"sequence": "GTGTGGATCT", "switch fluorescence ratio": 0.983}
{"sequence": "GTGTGGGGTT", "switch fluorescence ratio": 1}
{"sequence": "GTGTGGTTAT", "switch fluorescence ratio": 1.02}
{"sequence": "GTGTGTGATC", "switch fluorescence ratio": 1.05}
{"sequence": "GTGTGTTGGA", "switch fluorescence ratio": 1.06}
{"sequence": "GTGTTAGCA", "switch fluorescence ratio": 1.05}
{"sequence": "GTGTTCAACA", "switch fluorescence ratio": 1}
{"sequence": "GTGTTCTATT", "switch fluorescence ratio": 0.972}
{"sequence": "GTGTTGCGTA", "switch fluorescence ratio": 0.945}
{"sequence": "GTGTTGGGAT", "switch fluorescence ratio": 0.964}
{"sequence": "GTGTTGTACT", "switch fluorescence ratio": 0.993}
{"sequence": "GTGTTGTGAT", "switch fluorescence ratio": 0.95}
{"sequence": "GTGTTGTGCC", "switch fluorescence ratio": 0.948}
{"sequence": "GTGTTGTGTT", "switch fluorescence ratio": 0.998}
{"sequence": "GTTAAACCAG", "switch fluorescence ratio": 0.97}
{"sequence": "GTTAACGAGT", "switch fluorescence ratio": 1}
{"sequence": "GTTAACGTCT", "switch fluorescence ratio": 1.01}
{"sequence": "GTTAAGGGA", "switch fluorescence ratio": 0.992}
{"sequence": "GTTACACAAA", "switch fluorescence ratio": 1.03}
{"sequence": "GTTACCCACA", "switch fluorescence ratio": 1.45}
{"sequence": "GTTACCGGGA", "switch fluorescence ratio": 1.03}
{"sequence": "GTTACGCCGG", "switch fluorescence ratio": 1.01}
{"sequence": "GTTACTATGC", "switch fluorescence ratio": 1.05}
{"sequence": "GTTACTCGGG", "switch fluorescence ratio": 0.966}
{"sequence": "GTTAGAAGTA", "switch fluorescence ratio": 0.983}
{"sequence": "GTTAGAATGA", "switch fluorescence ratio": 1}
{"sequence": "GTTAGATGAA", "switch fluorescence ratio": 0.988}
{"sequence": "GTTAGCAGTT", "switch fluorescence ratio": 1.03}
{"sequence": "GTTAGGCAGG", "switch fluorescence ratio": 0.996}
{"sequence": "GTTAGGGAA", "switch fluorescence ratio": 1.02}
{"sequence": "GTTAGGGCGC", "switch fluorescence ratio": 0.988}
{"sequence": "GTTAGGGCTT", "switch fluorescence ratio": 0.976}
{"sequence": "GTTAGGTAAG", "switch fluorescence ratio": 1.24}
{"sequence": "GTTAGGTTCT", "switch fluorescence ratio": 1.02}
{"sequence": "GTTAGTAGGC", "switch fluorescence ratio": 0.942}
{"sequence": "GTTAGTCTGG", "switch fluorescence ratio": 1}
{"sequence": "GTTAGTGTAC", "switch fluorescence ratio": 1.16}
{"sequence": "GTTATAACTT", "switch fluorescence ratio": 1.03}
{"sequence": "GTTATGCTTT", "switch fluorescence ratio": 1.02}
{"sequence": "GTTATGTAGT", "switch fluorescence ratio": 1.01}
{"sequence": "GTTATTCAAG", "switch fluorescence ratio": 1}
{"sequence": "GTTATTGTCG", "switch fluorescence ratio": 1.09}
{"sequence": "GTTATTTGCC", "switch fluorescence ratio": 0.978}
{"sequence": "GTTCACCACA", "switch fluorescence ratio": 1.01}
{"sequence": "GTTCACCTTG", "switch fluorescence ratio": 0.937}
{"sequence": "GTTCACGTTG", "switch fluorescence ratio": 0.988}
{"sequence": "GTTCAGGAAA", "switch fluorescence ratio": 1.07}
{"sequence": "GTTCATAGGT", "switch fluorescence ratio": 0.977}
{"sequence": "GTTCATATAT", "switch fluorescence ratio": 0.991}
{"sequence": "GTTCATCAGT", "switch fluorescence ratio": 1}
{"sequence": "GTTCATGT", "switch fluorescence ratio": 1.01}
{"sequence": "GTTCATTCCT", "switch fluorescence ratio": 1.06}
{"sequence": "GTTCCCCGTA", "switch fluorescence ratio": 1.06}
{"sequence": "GTTCCGGGTG", "switch fluorescence ratio": 2.67}
{"sequence": "GTTCCGTAAA", "switch fluorescence ratio": 1.38}
{"sequence": "GTTCCTGCAG", "switch fluorescence ratio": 1.13}
{"sequence": "GTTCGAAGA", "switch fluorescence ratio": 1.11}
{"sequence": "GTTCGAAGCA", "switch fluorescence ratio": 1.2}
{"sequence": "GTTCGACAGG", "switch fluorescence ratio": 1.02}
{"sequence": "GTTCGACATG", "switch fluorescence ratio": 0.971}
{"sequence": "GTTCGCACGA", "switch fluorescence ratio": 1.05}
{"sequence": "GTTCGTGGTC", "switch fluorescence ratio": 0.971}
{"sequence": "GTTCTAGACT", "switch fluorescence ratio": 1.04}
{"sequence": "GTTCTATCCG", "switch fluorescence ratio": 1.02}
{"sequence": "GTTCTCCAGG", "switch fluorescence ratio": 2.04}
{"sequence": "GTTCTGATTA", "switch fluorescence ratio": 0.971}
{"sequence": "GTTCTGTCTT", "switch fluorescence ratio": 0.98}
{"sequence": "GTTCTTCA", "switch fluorescence ratio": 1.02}
{"sequence": "GTTGAACGGG", "switch fluorescence ratio": 1.01}
{"sequence": "GTTGAAGGC", "switch fluorescence ratio": 1.1}
{"sequence": "GTTGAATGT", "switch fluorescence ratio": 0.988}
{"sequence": "GTTGATCAAA", "switch fluorescence ratio": 1.02}
{"sequence": "GTTGATGATG", "switch fluorescence ratio": 0.995}
{"sequence": "GTTGATGGG", "switch fluorescence ratio": 0.977}
{"sequence": "GTTGATGTTC", "switch fluorescence ratio": 0.993}
{"sequence": "GTTGCATAAT", "switch fluorescence ratio": 1.02}
{"sequence": "GTTGCATACG", "switch fluorescence ratio": 1.01}
{"sequence": "GTTGCATCCC", "switch fluorescence ratio": 1.04}
{"sequence": "GTTGCATCTG", "switch fluorescence ratio": 0.967}
{"sequence": "GTTGCGAATG", "switch fluorescence ratio": 0.973}
{"sequence": "GTTGCGCTGG", "switch fluorescence ratio": 1.01}
{"sequence": "GTTGCGGCTG", "switch fluorescence ratio": 0.948}
{"sequence": "GTTGCTCTCG", "switch fluorescence ratio": 0.983}
{"sequence": "GTTGCTTACT", "switch fluorescence ratio": 1}
{"sequence": "GTTGGAACTA", "switch fluorescence ratio": 1}
{"sequence": "GTTGGACAG", "switch fluorescence ratio": 0.96}
{"sequence": "GTTGGACCTT", "switch fluorescence ratio": 1.25}
{"sequence": "GTTGGAGTAG", "switch fluorescence ratio": 0.981}
{"sequence": "GTTGGATAGC", "switch fluorescence ratio": 0.998}
{"sequence": "GTTGGATCTG", "switch fluorescence ratio": 1.02}
{"sequence": "GTTGGATTGT", "switch fluorescence ratio": 0.986}
{"sequence": "GTTGGCGCGA", "switch fluorescence ratio": 1.01}
{"sequence": "GTTGGGAGCT", "switch fluorescence ratio": 0.997}
{"sequence": "GTTGGGCAGG", "switch fluorescence ratio": 1.01}
{"sequence": "GTTGGGCGTC", "switch fluorescence ratio": 1.02}
{"sequence": "GTTGGTCAA", "switch fluorescence ratio": 0.994}
{"sequence": "GTTGGTCTGT", "switch fluorescence ratio": 0.961}
{"sequence": "GTTGGTGTCC", "switch fluorescence ratio": 1.04}
{"sequence": "GTTGGTTAGT", "switch fluorescence ratio": 0.999}
{"sequence": "GTTGGTTCGA", "switch fluorescence ratio": 0.969}
{"sequence": "GTTGTCCATC", "switch fluorescence ratio": 1}
{"sequence": "GTTGTGTCTA", "switch fluorescence ratio": 0.981}
{"sequence": "GTTGTTCATC", "switch fluorescence ratio": 0.909}
{"sequence": "GTTGTTCTC", "switch fluorescence ratio": 1.01}
{"sequence": "GTTGTTGTT", "switch fluorescence ratio": 0.983}
{"sequence": "GTTTAAATCT", "switch fluorescence ratio": 1.02}
{"sequence": "GTTTAAGAT", "switch fluorescence ratio": 1.16}
{"sequence": "GTTTAAGGAA", "switch fluorescence ratio": 0.999}
{"sequence": "GTTTAAGTCG", "switch fluorescence ratio": 0.97}
{"sequence": "GTTTAATGCG", "switch fluorescence ratio": 0.928}
{"sequence": "GTTTACTAAG", "switch fluorescence ratio": 1.02}
{"sequence": "GTTTACTCAT", "switch fluorescence ratio": 1.01}
{"sequence": "GTTTACTTAA", "switch fluorescence ratio": 0.986}
{"sequence": "GTTTAGCGTC", "switch fluorescence ratio": 1}
{"sequence": "GTTTATGCTA", "switch fluorescence ratio": 1.05}
{"sequence": "GTTTCAGATG", "switch fluorescence ratio": 1.01}
{"sequence": "GTTTCGGTTA", "switch fluorescence ratio": 3.13}
{"sequence": "GTTTCGTTAT", "switch fluorescence ratio": 1.01}
{"sequence": "GTTTCTTGGC", "switch fluorescence ratio": 0.967}
{"sequence": "GTTTGAAGTG", "switch fluorescence ratio": 0.984}
{"sequence": "GTTTGACGTC", "switch fluorescence ratio": 0.946}
{"sequence": "GTTTGAGTAG", "switch fluorescence ratio": 0.961}
{"sequence": "GTTTGCACTA", "switch fluorescence ratio": 1.18}
{"sequence": "GTTTGCAGAG", "switch fluorescence ratio": 1.06}
{"sequence": "GTTTGCATTA", "switch fluorescence ratio": 1.02}
{"sequence": "GTTTGGCTAC", "switch fluorescence ratio": 1.06}
{"sequence": "GTTTGGGAAG", "switch fluorescence ratio": 1}
{"sequence": "GTTTGGGCCA", "switch fluorescence ratio": 1.02}
{"sequence": "GTTTGGGTG", "switch fluorescence ratio": 1.22}
{"sequence": "GTTTGGTGCA", "switch fluorescence ratio": 0.977}
{"sequence": "GTTTGTCCTC", "switch fluorescence ratio": 0.987}
{"sequence": "GTTTGTTCTG", "switch fluorescence ratio": 0.972}
{"sequence": "GTTTTATAGC", "switch fluorescence ratio": 0.959}
